# Source: PubChem BioAssay AID1460 (National Center for Advancing Translational Sciences (NCATS), 2008)
# Hit rate of the full screen: of about 270,000 compounds, about 5,800 (2.1%) were called active. The inconclusive results got no clear call from the source; some entries with a clear call stand among them for comparison. Calls come from the whole dose curve; as a rule, active = well fitted inhibition curve with a large enough effect; inconclusive = small, poorly fitted or top-dose-only effect; inactive = flat fitted curve, though single readings scatter. A potency beside an inconclusive call is a rough fit, not a confirmed value.
# Biological target: Microtubule-associated protein tau (Homo sapiens) (UniProt P10636)
# Chain of UniProt P10636 (P10636 whole entry, looked up): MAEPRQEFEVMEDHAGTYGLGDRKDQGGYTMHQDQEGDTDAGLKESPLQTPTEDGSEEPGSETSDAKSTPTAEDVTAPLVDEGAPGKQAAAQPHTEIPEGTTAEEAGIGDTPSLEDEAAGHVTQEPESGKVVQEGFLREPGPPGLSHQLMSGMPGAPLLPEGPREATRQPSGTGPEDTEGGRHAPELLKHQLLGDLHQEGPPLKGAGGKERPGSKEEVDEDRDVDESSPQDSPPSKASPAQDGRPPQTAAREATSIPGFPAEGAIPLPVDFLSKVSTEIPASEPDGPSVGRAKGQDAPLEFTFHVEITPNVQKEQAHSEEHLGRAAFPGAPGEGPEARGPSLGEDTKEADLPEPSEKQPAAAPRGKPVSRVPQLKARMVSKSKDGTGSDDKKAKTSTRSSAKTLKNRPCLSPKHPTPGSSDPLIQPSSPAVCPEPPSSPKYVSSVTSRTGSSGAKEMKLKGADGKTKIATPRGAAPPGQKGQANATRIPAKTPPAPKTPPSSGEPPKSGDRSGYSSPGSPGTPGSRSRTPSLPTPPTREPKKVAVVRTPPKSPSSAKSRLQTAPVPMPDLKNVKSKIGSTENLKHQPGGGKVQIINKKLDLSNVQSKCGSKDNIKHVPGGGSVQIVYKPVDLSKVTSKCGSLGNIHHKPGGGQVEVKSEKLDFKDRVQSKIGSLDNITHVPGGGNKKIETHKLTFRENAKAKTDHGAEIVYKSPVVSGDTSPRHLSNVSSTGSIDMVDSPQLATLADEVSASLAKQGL
# Test: qHTS for Inhibitors of Tau Fibril Formation, Thioflavin T Binding; note: nearly all actives have a fitted effect of over 55% in size
# Settings: recombinant tau K18 P301L (four-repeat tau fragment), heparin-induced fibrillization, ThT fluorescence; series mostly up to 57.4 µM; activity, negative = inhibition: at the top concentration
# In short: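 Heparin-induced (20 uM) aggregation of recombinant human K18 P301L tau, 15 uM unlabeled with 0.24 uM labeled, pH 7 acetate buffer, 6 hr at 37 C with compound. Fibrils quantified by 30 uM ThT fluorescence after 1 hr ambient incubation.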
# % is set by controls: 0 for no effect and ±100 for the full control effect; potency is the fitted concentration of half-maximal effect; tags give direction and shape of the fitted curve.
SMILES,Potency,"activity, negative = inhibition"
CCc1cc(=O)[nH]c(SCc2nc(-c3ccccc3C)no2)n1,"inconclusive: 22.4 µM [inhibitor, partial curve]",
CC(C)n1c(=NC(=O)c2ccco2)c(C#N)cc2c(=O)n3ccccc3cc21,"inconclusive: 20 µM [inhibitor, partial curve]",
CCc1nc(N2CCN(C(=O)c3ccco3)CC2)c2c3c(sc2n1)CCCC3,,inactive: -18%
CC1CCc2nn(CC(=O)NCCCN3CCOCC3)cc2C1 (centres undefined),,inactive: -3.5%
CN(C)c1ccc(O)c2c1C[C@@H]1C[C@H]3C(N(C)C)C(=O)C(C(N)=O)=C(O)[C@@]3(O)C(=O)C1=C2O (some centres undefined),"inconclusive: 7.94 µM [inhibitor, partial curve, poor fit]",
Cn1cccc1/C=C1\SC(=Nc2cccc(O)c2)NC1=O,active: 7.08 µM,
O=C(O)C(=O)/C(=C\c1ccc(Cl)cc1)c1ccc2ccccc2n1,"inconclusive: 15.8 µM [inhibitor, partial curve]",
Cc1cc(C)c2oc(C(=O)Nc3ccc(S(=O)(=O)Nc4nccs4)cc3)cc(=O)c2c1,"inconclusive: 39.8 µM [inhibitor, single point]",
CCCC(C)NC(=O)c1ccc2[nH]c3c(c2c1)CC(C)CC3 (centres undefined),,inactive: -4.1%
CCOC(=O)Cn1c(-c2nonc2NC(=O)c2ccccc2F)nc2ccccc21,,inactive: -19.5%
CCOc1ccc(OCC(=O)c2c(O)c3ccccc3oc2=O)cc1,"inconclusive: 22.4 µM [inhibitor, partial curve]",
Cc1ccc(N2CCN(/N=C/c3c(C)nn(-c4ccccc4)c3Cl)CC2)cc1,"inconclusive: 2.24 µM [inhibitor, full curve]",
Cc1cccc(NC(=O)CSc2nnc3c4ccccc4n(C)c3n2)c1,"inconclusive: 0.891 µM [inhibitor, full curve, poor fit]",
O=C(NC(NNc1ccc([N+](=O)[O-])cc1)(C(F)(F)F)C(F)(F)F)c1ccc(Cl)cc1,"inconclusive: 25.1 µM [inhibitor, partial curve]",
CCOC(=O)c1c(-c2cccc([N+](=O)[O-])c2)csc1N,"inconclusive: 39.8 µM [inhibitor, single point]",
CCCc1cc(=O)c2ccc(OC/C(C)=N/O)cc2o1,,inactive: -8.24%
CSc1cccc(NC(=O)/C=C/c2ccco2)c1,"inconclusive: 28.2 µM [inhibitor, partial curve]",
O=C(N/N=C1\CCCc2ccccc21)c1ccc([N+](=O)[O-])cc1,"inconclusive: 15.8 µM [inhibitor, partial curve]",
O=C(N/N=C/c1cc(Cl)ccc1O)c1ccncc1,,inactive: -7.81%
